The values below come from the BET-seq Pho4 binding data (Le et al. 2018).

This is one part of the list. The energies were worked out here from pooled read counts, against the library average; single values are noisy.

For the assay, the target named is T1, Pho4 (S. cerevisiae) (UniProt P07270).
T1 sequence: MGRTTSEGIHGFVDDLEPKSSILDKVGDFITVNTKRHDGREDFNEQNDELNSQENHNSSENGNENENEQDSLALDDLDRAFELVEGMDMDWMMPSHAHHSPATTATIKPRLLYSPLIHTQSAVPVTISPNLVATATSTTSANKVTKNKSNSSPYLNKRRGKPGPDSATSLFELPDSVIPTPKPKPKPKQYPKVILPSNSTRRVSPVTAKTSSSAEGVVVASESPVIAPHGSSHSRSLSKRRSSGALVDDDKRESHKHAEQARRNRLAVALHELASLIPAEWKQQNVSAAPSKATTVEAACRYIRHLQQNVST
The experiment in a line: relative binding free energy (BET-seq); higher = weaker binding. The settings on record: reference: library average.
In the case of GTTTTCACGTGAGTCT, the “relative binding free energy” value was 0.36 kcal/mol.

As to GAAGGCACGTGAGGTG, the “relative binding free energy” value came out at 0.11 kcal/mol.

As to GAGTGCACGTGTGCCG, the “relative binding free energy” value worked out at 0.1 kcal/mol.

As for TGTGACACGTGCAGGC, the “relative binding free energy” value was 0.01 kcal/mol.

For ACGTTCACGTGTTTGG, the “relative binding free energy” value stood at 0.23 kcal/mol.

As for AGATACACGTGTGGCG, the “relative binding free energy” value was 0.07 kcal/mol.

As for TAGGGCACGTGCGGCG, the “relative binding free energy” value was -0.2 kcal/mol.

Consider TGGAACACGTGATGTG, for which the “relative binding free energy” value turned out to be 0.19 kcal/mol.

Turning to AAAGGCACGTGAATTT, the “relative binding free energy” value was determined as 0.19 kcal/mol.

As to GAGTTCACGTGAGGTA, the “relative binding free energy” value stood at 0.5 kcal/mol.

In the case of CTGTGCACGTGTAGGA, the “relative binding free energy” value was -0.15 kcal/mol.

Consider TGTCACACGTGTGTTA, for which the “relative binding free energy” value was found to be 0.04 kcal/mol.

For the sequence AGATGCACGTGGTGAG, the “relative binding free energy” value is -0.1 kcal/mol.

As to GTGTACACGTGATAGT, the “relative binding free energy” value is 0.04 kcal/mol.

As to AAGTGCACGTGGTGTG, the “relative binding free energy” value is -0.19 kcal/mol.

Take CTGGCCACGTGGCGTG: the “relative binding free energy” value was -0.11 kcal/mol.

As for TCGGGCACGTGGTACG, the “relative binding free energy” value is -0.23 kcal/mol.

For CTGCGCACGTGTTTTG, the “relative binding free energy” value stood at 0.03 kcal/mol.

As for AGTTTCACGTGCACGT, the “relative binding free energy” value amounted to 0.16 kcal/mol.

Regarding GGGCGCACGTGCGGAG, the “relative binding free energy” value is -0.17 kcal/mol.

With AGTGGCACGTGCGGTC, the “relative binding free energy” value is -0.15 kcal/mol.

In the case of GTCGGCACGTGGGGCC, the “relative binding free energy” value is -0.08 kcal/mol.

In the case of AGGAACACGTGTGAGG, the “relative binding free energy” value is -0.07 kcal/mol.

For GGATACACGTGTAGGG, the “relative binding free energy” value was -0.04 kcal/mol.

Turning to AGGGACACGTGGGGTT, the “relative binding free energy” value is -0.02 kcal/mol.

Regarding GGAGGCACGTGAAGGT, the “relative binding free energy” value worked out at 0.2 kcal/mol.

GTGTCCACGTGATATG: the “relative binding free energy” value was 0.08 kcal/mol.

In the case of TATTGCACGTGAGCAT, the “relative binding free energy” value was determined as 0.17 kcal/mol.

Turning to TATGTCACGTGTTACA, the “relative binding free energy” value is 0.09 kcal/mol.

Take GGTTGCACGTGAGCAG: the “relative binding free energy” value turned out to be 0.26 kcal/mol.

TAGGCCACGTGTGAGG: the “relative binding free energy” value was -0.07 kcal/mol.

As for ATGCGCACGTGTGTGT, the “relative binding free energy” value is -0.08 kcal/mol.

Regarding TATGACACGTGTCAGG, the “relative binding free energy” value worked out at 0.03 kcal/mol.

TATAGCACGTGGGTGA: the “relative binding free energy” value is -0.29 kcal/mol.

GGGGGCACGTGGTTTG: the “relative binding free energy” value was -0.11 kcal/mol.

With ATTACCACGTGGTTTT, the “relative binding free energy” value was -0.04 kcal/mol.

For GTTAACACGTGTAGGT, the “relative binding free energy” value was 0.09 kcal/mol.

On to CGGTACACGTGCGGGT, for which the “relative binding free energy” value was -0.19 kcal/mol.

On to AGAGTCACGTGAGGCG, for which the “relative binding free energy” value is 0.35 kcal/mol.

As for TCGCGCACGTGGGTGA, the “relative binding free energy” value was -0.24 kcal/mol.

Turning to ATAGGCACGTGGCTGG, the “relative binding free energy” value is -0.21 kcal/mol.

Turning to GGTGTCACGTGCACGT, the “relative binding free energy” value turned out to be 0.06 kcal/mol.

Take GTCGCCACGTGGGGGT: the “relative binding free energy” value is -0.25 kcal/mol.

Take ATGTTCACGTGGCTAA: the “relative binding free energy” value was 0.21 kcal/mol.

As to GAGGACACGTGGATGG, the “relative binding free energy” value stood at 0.02 kcal/mol.

Take TGTTTCACGTGCGTAA: the “relative binding free energy” value came to 0.38 kcal/mol.

Regarding GGAGGCACGTGTTATG, the “relative binding free energy” value was determined as 0.02 kcal/mol.

Take TGGGGCACGTGAGTTA: the “relative binding free energy” value was found to be 0.13 kcal/mol.

In the case of AAGAACACGTGATGTG, the “relative binding free energy” value is 0.17 kcal/mol.

For the sequence AGATGCACGTGGGTGC, the “relative binding free energy” value is -0.15 kcal/mol.

In the case of TCGATCACGTGGTGTT, the “relative binding free energy” value came out at 0.07 kcal/mol.

On to GGAATCACGTGATGGG, for which the “relative binding free energy” value worked out at 0.27 kcal/mol.

On to ATAAGCACGTGATTGA, for which the “relative binding free energy” value was -0.03 kcal/mol.

As to ATGTTCACGTGTTGTC, the “relative binding free energy” value is 0.3 kcal/mol.

On to CTGGGCACGTGAGTTT, for which the “relative binding free energy” value was found to be 0.2 kcal/mol.

On to GTTCTCACGTGGTGGT, for which the “relative binding free energy” value was 0.13 kcal/mol.

Turning to AAAGTCACGTGAGTTT, the “relative binding free energy” value was 0.26 kcal/mol.

With GGGGGCACGTGTAAGC, the “relative binding free energy” value was 0.01 kcal/mol.

As to GGTGCCACGTGGGGGC, the “relative binding free energy” value is -0.25 kcal/mol.

GGGGACACGTGTAGTG: the “relative binding free energy” value amounted to 0.1 kcal/mol.

As for GCCTGCACGTGGGTTG, the “relative binding free energy” value is -0.17 kcal/mol.

Turning to TTGCCCACGTGGGTTT, the “relative binding free energy” value was -0.08 kcal/mol.

On to GGAGTCACGTGTAAAT, for which the “relative binding free energy” value was 0.27 kcal/mol.

Take CAGCACACGTGGTGGG: the “relative binding free energy” value turned out to be 0.06 kcal/mol.

For the sequence TGAATCACGTGAGTGA, the “relative binding free energy” value came to 0.33 kcal/mol.

In the case of AGAGTCACGTGGCCGG, the “relative binding free energy” value turned out to be 0.01 kcal/mol.

In the case of CTGTTCACGTGCTTGG, the “relative binding free energy” value is 0.15 kcal/mol.

Turning to GTCGGCACGTGGGAAG, the “relative binding free energy” value was -0.1 kcal/mol.

Turning to GGTGCCACGTGTCGTG, the “relative binding free energy” value is -0.02 kcal/mol.

CGTTGCACGTGGGGGG: the “relative binding free energy” value was -0.15 kcal/mol.

Turning to GATAGCACGTGTGAGT, the “relative binding free energy” value is 0.02 kcal/mol.

Regarding AGGGACACGTGTGTGT, the “relative binding free energy” value was 0.04 kcal/mol.

For the sequence GGTTTCACGTGCAATG, the “relative binding free energy” value is 0.38 kcal/mol.

For AGTCACACGTGAGAGG, the “relative binding free energy” value was 0.3 kcal/mol.

Turning to TGGAGCACGTGTTATT, the “relative binding free energy” value is -0.07 kcal/mol.

Regarding TGGTGCACGTGGCGAA, the “relative binding free energy” value is -0.15 kcal/mol.

Take GGATGCACGTGCCGGG: the “relative binding free energy” value was -0.09 kcal/mol.

Regarding TTCATCACGTGGTGTT, the “relative binding free energy” value came to 0.1 kcal/mol.

For TGTTACACGTGGGTCG, the “relative binding free energy” value was determined as 0 kcal/mol.

Consider TCGGTCACGTGAGGGC, for which the “relative binding free energy” value was determined as 0.35 kcal/mol.

Regarding TACAGCACGTGGTGTT, the “relative binding free energy” value was -0.22 kcal/mol.

Regarding CATTTCACGTGGGTAT, the “relative binding free energy” value is 0.2 kcal/mol.

In the case of TGTTACACGTGTGAGC, the “relative binding free energy” value was 0.23 kcal/mol.

Regarding GGTAGCACGTGTTTTT, the “relative binding free energy” value was determined as 0.06 kcal/mol.

In the case of TCTATCACGTGTGGGT, the “relative binding free energy” value came to 0.18 kcal/mol.

Turning to CTGGTCACGTGGGGCT, the “relative binding free energy” value was 0.07 kcal/mol.

Consider ATAGGCACGTGAATAG, for which the “relative binding free energy” value stood at 0.05 kcal/mol.

For TGTATCACGTGAGGGT, the “relative binding free energy” value is 0.26 kcal/mol.

In the case of TCGTGCACGTGGGGGA, the “relative binding free energy” value is -0.18 kcal/mol.

In the case of CGGTGCACGTGGCGGT, the “relative binding free energy” value worked out at 0 kcal/mol.

On to GATGGCACGTGATTTA, for which the “relative binding free energy” value came to 0.09 kcal/mol.

Consider GATGGCACGTGGGCTA, for which the “relative binding free energy” value is -0.07 kcal/mol.

For the sequence TGTTCCACGTGAAGGG, the “relative binding free energy” value worked out at 0.29 kcal/mol.

As to GGGGACACGTGTGTCT, the “relative binding free energy” value stood at 0.03 kcal/mol.

Take TTGAGCACGTGGGTTG: the “relative binding free energy” value is -0.17 kcal/mol.

Consider TTATCCACGTGGTGGC, for which the “relative binding free energy” value was found to be 0.01 kcal/mol.

With AGGGGCACGTGGGCAT, the “relative binding free energy” value is -0.26 kcal/mol.

ATTGACACGTGTGATA: the “relative binding free energy” value was found to be 0.02 kcal/mol.

Take GTTCTCACGTGTTTTA: the “relative binding free energy” value was 0.39 kcal/mol.

GGTGTCACGTGGTTTG: the “relative binding free energy” value worked out at 0.18 kcal/mol.

As for CTGTACACGTGGAGTT, the “relative binding free energy” value was determined as 0.08 kcal/mol.

With GAGGACACGTGATTGT, the “relative binding free energy” value came out at 0.15 kcal/mol.

GATGGCACGTGAGGTT: the “relative binding free energy” value stood at 0.27 kcal/mol.

With ATGTGCACGTGTTAAG, the “relative binding free energy” value stood at 0.03 kcal/mol.

Turning to ATTTGCACGTGTTCCT, the “relative binding free energy” value amounted to 0.08 kcal/mol.

TGCGGCACGTGGATGC: the “relative binding free energy” value was -0.07 kcal/mol.

Regarding GTTCGCACGTGTAGTG, the “relative binding free energy” value is -0.03 kcal/mol.

Turning to GGTAACACGTGCGGTC, the “relative binding free energy” value was 0.11 kcal/mol.

Turning to GGAGGCACGTGAGATT, the “relative binding free energy” value is 0.15 kcal/mol.

TTATACACGTGGTTGT: the “relative binding free energy” value was found to be 0.01 kcal/mol.

With TGGCTCACGTGGAGAA, the “relative binding free energy” value turned out to be 0.16 kcal/mol.

Turning to GTTTGCACGTGGTTGT, the “relative binding free energy” value is 0.11 kcal/mol.

As for GTTTCCACGTGGAATG, the “relative binding free energy” value amounted to 0.28 kcal/mol.

For GCGTACACGTGATTTG, the “relative binding free energy” value amounted to 0.32 kcal/mol.

For TATATCACGTGTGTAC, the “relative binding free energy” value worked out at 0.13 kcal/mol.
